Experimental findings from article PMC4336329 (PLoS ONE, 2015) are described below.

Hit rate of the full screen: of about 310,000 compounds, about 14,000 (4.5%) showed an effect of 50% or more. The effect is printed as a negative number. The list shows a part of the results. Where a SMILES comes first, the peptide text is derived from it. The star is where a group is joined. Cbz = O=C(OCc1ccccc1)*
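Further: peak tail current of the secondary pulse compared with the same well before compound.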

In the experiment the target is human ether-à-go-go-related gene (hERG) potassium channel (human, UniProt Q12809). Briefly: primary screen, population patch clamp on CHO cells stably expressing hERG.
human ether-à-go-go-related gene (hERG) potassium channel, sequence (Q12809 whole entry, looked up): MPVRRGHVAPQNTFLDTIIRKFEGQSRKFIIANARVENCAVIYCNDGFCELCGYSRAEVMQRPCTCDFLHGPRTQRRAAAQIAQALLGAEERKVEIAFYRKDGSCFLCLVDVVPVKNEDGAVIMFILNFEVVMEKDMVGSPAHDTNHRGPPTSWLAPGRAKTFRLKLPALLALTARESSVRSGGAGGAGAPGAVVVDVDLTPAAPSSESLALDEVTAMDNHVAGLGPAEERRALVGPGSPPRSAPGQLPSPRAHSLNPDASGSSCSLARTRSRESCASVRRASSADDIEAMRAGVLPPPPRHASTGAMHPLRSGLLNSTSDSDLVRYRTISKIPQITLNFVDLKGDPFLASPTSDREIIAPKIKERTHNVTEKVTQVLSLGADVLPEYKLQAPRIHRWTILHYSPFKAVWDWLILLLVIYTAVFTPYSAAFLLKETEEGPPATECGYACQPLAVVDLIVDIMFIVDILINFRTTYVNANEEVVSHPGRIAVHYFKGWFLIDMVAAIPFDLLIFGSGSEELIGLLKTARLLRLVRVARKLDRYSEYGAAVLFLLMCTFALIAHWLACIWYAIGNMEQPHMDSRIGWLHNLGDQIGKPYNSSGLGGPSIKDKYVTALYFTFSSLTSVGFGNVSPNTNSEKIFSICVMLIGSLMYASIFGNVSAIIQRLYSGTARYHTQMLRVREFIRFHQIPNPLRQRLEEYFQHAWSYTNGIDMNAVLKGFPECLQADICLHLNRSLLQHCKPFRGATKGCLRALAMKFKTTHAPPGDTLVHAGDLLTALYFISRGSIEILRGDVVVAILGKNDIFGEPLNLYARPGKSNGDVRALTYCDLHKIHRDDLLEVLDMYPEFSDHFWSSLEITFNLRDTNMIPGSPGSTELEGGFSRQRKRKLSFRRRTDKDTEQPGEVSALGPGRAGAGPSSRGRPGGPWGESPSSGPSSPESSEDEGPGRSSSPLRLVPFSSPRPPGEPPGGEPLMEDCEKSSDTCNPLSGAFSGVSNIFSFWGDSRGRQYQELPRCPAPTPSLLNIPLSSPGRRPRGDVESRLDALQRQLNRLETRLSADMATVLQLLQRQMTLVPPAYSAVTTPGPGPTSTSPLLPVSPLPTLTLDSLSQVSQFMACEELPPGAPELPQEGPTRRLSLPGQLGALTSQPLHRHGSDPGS
For the molecule `COC(=O)c1ccccc1S(=O)(=O)C(C)(C)C`, the “hERG current change (%, negative = inhibition) at 10uM” value was -1.71%.
Regarding `COC(=O)C(NC(=O)c1ccc(C)cc1)(Nc1cccc(C)n1)C(F)(F)F` (stereo not drawn), the “hERG current change (%, negative = inhibition) at 10uM” value was -11.7%.
Then `COc1ccc(N2C(=O)CSC2c2ccc(F)c(F)c2)cc1` (stereo not drawn), with 13.1%; and `C=CCN(C(=O)c1csnn1)C(C(=O)NC1CCCCC1)c1ccccc1F` (stereo not drawn), with 3.38%; and `COc1cc(OC)c2c(c1O)OC(c1ccccc1)CC2=O` (stereo not drawn), with 18.9%.
For `O=C(O)C(=O)O.O=[N+]([O-])c1ccccc1S(=O)(=O)N1CCN(Cc2ccsc2)CC1`, the “hERG current change (%, negative = inhibition) at 10uM” value is given as -38.1%.
In the case of `C=CCSc1nn2c(=O)c3ccccc3nc2s1`, the “hERG current change (%, negative = inhibition) at 10uM” value was -24.5%.
Consider `Cc1ccc(C2(CCNS(=O)(=O)c3ccc(C)cc3)CCOC(C(C)C)C2)cc1` (stereo not drawn), for which the “hERG current change (%, negative = inhibition) at 10uM” value is recorded as -53.5%.
As for `Cc1ccccc1NC(=O)C1(NC(=O)c2cccc(N3C(=O)CSC3c3ccccc3)c2)CCCCC1` (stereo not drawn), the “hERG current change (%, negative = inhibition) at 10uM” value came out at 5.33%.
Then `CC(C)c1cc(-c2cc(C(=O)Nc3ccccc3)on2)nc(NC2CCCC2)n1`, with -5.33%.
Then `CCCc1oc(C(=O)O)cc1CN.Cl`, with 5.96%; and `COc1cccc(NC(=O)C2CCCN2C(=O)NC2CCCCC2)c1` (stereo not drawn), with 6.54%.
Take `CC(NC(=O)CNC(=O)C(Cc1ccccc1)NC(=O)OCc1ccccc1)C(N)=O` (stereo not drawn) (Cbz-Phe-Gly-Ala-NH2; configuration not given here): the “hERG current change (%, negative = inhibition) at 10uM” value is reported as 42.4%.
As to `COc1ccccc1CCNC(=O)c1ccc(C)o1`, the “hERG current change (%, negative = inhibition) at 10uM” value is reported as -10.2%.
For the molecule `COc1ccc(O)c(C=NCC(C)N=Cc2cc(OC)ccc2O)c1` (stereo not drawn), the “hERG current change (%, negative = inhibition) at 10uM” value is listed as 8.91%.
With `Cc1ccc(-n2nc3c(c2NC(=O)CC(C)C)CS(=O)(=O)C3)c(C)c1`, the “hERG current change (%, negative = inhibition) at 10uM” value came to 25%.
On to `CC(=O)Oc1ccc(/C=C(\NC(=O)c2ccco2)C(=O)Nc2ccc(C(C)=O)cc2)cc1`, for which the “hERG current change (%, negative = inhibition) at 10uM” value was -26.2%.
Take `CC(C)Oc1ccc(OCCn2c(=S)[nH]c3c(N)ncnc32)cc1`: the “hERG current change (%, negative = inhibition) at 10uM” value is given as -2.49%.
Consider `O=C1NC(=O)N(Cc2ccccc2)C(=O)/C1=C/N1CCCc2ccccc21`, for which the “hERG current change (%, negative = inhibition) at 10uM” value came to 12.1%.
Consider `CC(=O)Nc1ccc(OC(=O)c2ccco2)cc1`, for which the “hERG current change (%, negative = inhibition) at 10uM” value was found to be 9.07%.
As to `Cn1c(=O)c2c(nc(Br)n2CC(=O)C23CC4CC(CC(C4)C2)C3)n(C)c1=O`, the “hERG current change (%, negative = inhibition) at 10uM” value is -24.6%.
Regarding `Cc1nc(C(=O)O)nn1-c1ccc([N+](=O)[O-])cc1`, the “hERG current change (%, negative = inhibition) at 10uM” value was 2.84%.
As to `CC(C)[C@H](NC(=O)c1c(F)cccc1F)C(=O)OCC(=O)NC(=O)NC1CCCC1`, the “hERG current change (%, negative = inhibition) at 10uM” value was 3.2%.
For `CCN1CCc2c(sc(NC(=O)Cc3ccccc3)c2C(=O)OC)C1.Cl`, the “hERG current change (%, negative = inhibition) at 10uM” value is -51.5%.
